According to PubChem BioAssay AID1508642 (National Center for Advancing Translational Sciences (NCATS), 2021):
In all, about 43,000 compounds went through this assay and about 200 (0.47%) were called active. Roughly 12% stayed inconclusive and do not appear here. The call rests on the fitted dose curve; in most records, active means well fitted cell-killing curve with a large enough effect; inconclusive means small, poorly fitted or top-dose-only effect, or effect the other way; inactive means flat fitted curve, though single readings scatter. This is one part of the list.

Experiment: Cell viability qHTS assay in S16 Pmp22-F2sN cells; further: nearly all actives have a fitted effect of over 65% in size
Conditions: S16 Pmp22-F2sN Schwann cells viability, CellTiter-Glo, 24 h; series mostly up to 57.5 µM; activity change, negative = cytotoxicity: at the top concentration
Procedure, shortened: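 Viability was measured by CellTiter-Glo luminescence (15 min, room temperature). This followed 24 h at 37 °C of compound exposure (23 nL pin transfer) in S16 Pmp22-F2sN Schwann cells, 500-1,000 per well.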
On the % scale 0 is the no-effect control and ±100 the full control effect.

| Structure (SMILES) | activity change, negative = cytotoxicity |
| --- | --- |
| Cc1ccc(-c2nnc(Nc3ccccc3O)c3ccccc23)cc1 | inactive: -0.712% |
| Cc1ccc(Cl)cc1N1CCN(C(=O)c2cnn(C)c2C2CCN(C(=O)OC(C)(C)C)CC2)CC1 | inactive: -29.7% |
| O=C(Nc1cc2c(cc1C(=O)c1ccccc1Br)OCCO2)c1ccccc1 | inactive: 17.6% |
| CCc1ccc(-n2c(=O)c3sc4ccccc4c3n(CC(=O)N(CC)Cc3ccccc3)c2=O)cc1 | inactive: -9.7% |
| O=C(Nc1ccc2nc(SCC(=O)N3CCc4ccccc43)sc2c1)c1ccccc1 | inactive: 3.75% |
| Cc1ccc2sc(-c3ccc(N)cc3)nc2c1 | inactive: -2.18% |
| CCC(=O)N1CCc2cc(CNC(=O)c3ccccc3C)ccc21 | inactive: -17.3% |
| CCCCNC(=O)CSc1nc2nc(C)c(Cc3c(F)cccc3Cl)c(C)n2n1 | inactive: 23.3% |
| CCc1cc(C(=O)Nc2c(C)nn(Cc3ccccc3Cl)c2C)no1 | inactive: -29.2% |
| Cc1cc(C)c(NC(=O)CN2C(=O)c3cccnc3Sc3ccccc32)c(C)c1 | inactive: -6.53% |
| O=C(CCC(=O)N1CC2CCCN2c2ccccc21)NCc1ccc(F)cc1 (centres undefined) | inactive: 13.6% |
| CCOc1ccccc1CNC(=O)c1ccc(CS(=O)Cc2cccc(Cl)c2)o1 (centres undefined) | inactive: -0.941% |
| Cc1cccc(NC(=O)CSc2nnc(NC(=O)Nc3ccccc3)s2)c1C | inactive: -4.66% |
| CSc1ccc(C2C(C(=O)Nc3ccccc3)=C(C)Nc3nc4ccccc4n32)cc1 (centres undefined) | inactive: -2.04% |
| CCc1ccc(NC(=O)CC2C(=O)NCCN2C(=O)c2ccc(F)cc2)cc1 (centres undefined) | inactive: 19.4% |
| CCc1ccc(NC(=O)NCCc2c(C)nn(C)c2C)cc1 | inactive: -15.9% |
| COc1cccc(NC(=O)CSc2nnc(-c3cccc(OC)c3)o2)c1 | inactive: -7.64% |
| Cc1ccc(NC(=O)CSc2ncc(-c3ccccc3)[nH]2)cc1 | inactive: -5.77% |
| CSc1ccc(CNC(=O)Cn2nc(N3CCN(c4ccccc4)CC3)ccc2=O)cc1 | inactive: 17.8% |
| Cc1ccccc1CNC(=O)C(=O)NCC(c1ccco1)S(=O)(=O)c1cccs1 (centres undefined) | inactive: 3.33% |
| CCCCN(C)CCCNC(=O)C1CCN(S(=O)(=O)CCC)CC1 | inactive: -2.6% |
| Cc1oc2ncn(C)c(=O)c2c1C(=O)N1CCN(c2cccc(C(F)(F)F)c2)CC1 | inactive: -15.1% |

| Structure (SMILES) | activity change, negative = cytotoxicity |
| --- | --- |
| Cc1oc(-c2cccc(Cl)c2)nc1CN1CCC(C(=O)NC(C)c2ccccc2)CC1 (centres undefined) | inactive: -9.63% |
| CCN(CC)c1ccc(CNCCCSc2nnnn2C)cc1 | inactive: 4.78% |
| COc1ccc(CNC(=O)c2cc(Nc3ccccc3C)nc3ccccc23)cc1 | inactive: 19.1% |
| CCN(c1ccccc1)S(=O)(=O)c1nnc(NC(=O)c2ccccc2OC)s1 | inactive: -0.405% |
| CCOCCc1nn2c(=O)cc(COC(=O)c3ccc(NC(=O)C4CCCCC4)cc3)nc2s1 | inactive: -24.2% |
| CCc1ccccc1NC(=O)CCCSc1nc(-c2ccco2)cc(C(F)(F)F)n1 | inactive: -1.88% |
| COc1ccc(NC(=O)C2=CC(c3ccco3)=NS(=O)(=O)N2C)cc1OC | inactive: 8.88% |
| CCCN(C(=O)c1cn(C)c(=O)c2cc(OC)c(OC)cc12)c1ccc(CC)cc1 | inactive: -15.2% |
| Cc1nn(-c2ccccc2)c(OC(=O)c2ccccc2Br)c1S(=O)(=O)c1ccccc1 | inactive: 1.99% |
| Cc1cc(NC(=O)c2ccc3c(c2)N(Cc2cccc(Cl)c2)C(=O)c2ccccc2S3(=O)=O)ccc1Br | inactive: 8.09% |
| O=C(CS(=O)(=O)c1cccc2nsnc12)N1CCN(c2ccccc2F)CC1 | inactive: -3.69% |
| O=C(Nc1ccc(Cl)cc1)C1CCC(CNS(=O)(=O)c2ccc(Br)s2)CC1 (centres undefined) | inactive: 7.61% |
| O=c1c2cc3c(cc2nc2sc(Nc4ccccc4)nn12)OCO3 | inactive: 15% |
| COc1ccc(NC(=O)CN2CCN(CC(=O)Nc3ccccc3F)CC2)c(OC)c1 | inactive: 1.76% |
| CC1CCN(S(=O)(=O)c2ccc3c(c2)c(=O)c(C(=O)N2CCN(c4cccc(Cl)c4)CC2)cn3C)CC1 | inactive: 12.6% |
| CCOC(=O)c1c(C)oc2nc(C)nc(NCCc3ccc(OCC)c(OCC)c3)c12 | inactive: -5.91% |
| COC(=O)c1ccc(NC(=O)CSc2cn(CC(=O)N3CCCCC3)c3ccccc23)cc1 | inactive: 10.2% |
| COc1ccc(N2CCN(c3ncnc4c3cnn4-c3ccc(F)cc3)CC2)cc1 | inactive: 4.72% |
| COc1ccc(S(=O)(=O)c2c(Nc3cccc(C)c3C)sc(C(=O)c3ccccc3)c2N)cc1 | inactive: -21.8% |
| COc1ccc(-c2nc(SCC(=O)NC(C)CCc3ccccc3)n[nH]2)cc1 (centres undefined) | inactive: -21.6% |
| Cc1ccc(Nc2cc(C(=O)NCCc3ccccc3)c3ccccc3n2)c(C)c1 | inactive: 12.5% |
| CC1CCN(C(c2ccccc2)c2sc3nc(-c4ccco4)nn3c2O)CC1 (centres undefined) | inactive: 5.81% |

| Structure (SMILES) | activity change, negative = cytotoxicity |
| --- | --- |
| COc1ccc(CNS(=O)(=O)c2cc3c(cc2Cl)N(C(C)=O)CCO3)cc1 | inactive: 8.82% |
| O=C(CSc1nc(-c2ccccc2)cn1-c1ccccc1F)Nc1ccc(F)cc1 | inactive: -5.58% |
| Cc1ccccc1Cn1c(COc2ccc(Cl)cc2)nc2ccccc21 | inactive: 28.3% |
| Cc1nc2ccc(S(=O)(=O)N(C)CC(=O)Nc3ccc(C(C)C)cc3)cc2s1 | inactive: -19.5% |
| COc1ccc(CNC(=O)C2CCN(c3nnc(-n4c(C)ccc4C)s3)CC2)c(OC)c1 | inactive: -17.4% |
| O=C(Nc1cccc(F)c1)C1CCCN(S(=O)(=O)c2cccc3cccnc23)C1 (centres undefined) | inactive: -29.8% |
| CCCCC(=O)Nc1c(C(=O)N2CCN(c3ccccc3F)CC2)oc2ccccc12 | inactive: -16.2% |
| CCCOC(=O)c1cccc(NC(=O)c2c(-c3ccccc3Cl)noc2C)c1 | inactive: -4.62% |
| O=C(Cn1nc(-c2ccc(Cl)cc2)c2ccccc2c1=O)Nc1cccc(Br)c1 | inactive: -0.268% |
| COc1cc2c(cc1OC)CN(C(=O)Nc1ccccc1)CC2 | inactive: -7.12% |
| CCS(=O)(=O)Nc1ccc(-c2cn3ccsc3n2)cc1 | inactive: 3.06% |
| COc1ccc(-c2nc3sc(CCNC(=O)c4ccco4)c(C)n3n2)cc1 | inactive: 2.34% |
| Cc1cccc(N2CCN(S(=O)(=O)c3c(C)nc4scc(C)n4c3=O)CC2)c1C | inactive: 2.62% |
| COc1ccccc1NC(=O)c1ccc(COc2ccc(C)c(C)c2)o1 | inactive: 11.8% |
| O=C(Nc1cccc(C(F)(F)F)c1)c1ccc2c(c1)nnn2C1CCCC1 | inactive: 28% |
| COc1ccc(S(=O)(=O)NCCc2nnc3ccc(SCC(=O)Nc4ccccc4C)nn23)cc1 | inactive: -1.58% |
| COC(=O)c1cc2oc(C)cc2n1Cc1ccc(Br)cc1F | inactive: 7.72% |
| CCC(Oc1ccccc1-c1nnc(-c2ccccc2)o1)C(=O)Nc1ccc(C(C)=O)cc1 (centres undefined) | inactive: -6.36% |
| COC(=O)c1ccc(NC(=O)CSc2ccc(-c3sc(-c4ccccc4)nc3C)nn2)cc1 | inactive: -11.5% |
| COc1ccc2nc(N(Cc3cccnc3)C(C)=O)sc2c1 | inactive: 13.9% |
